The record followed here is paper PMC10668032.

The list shows a part of the results. At the low end of the ranking the order means little.

This test addresses SIX1-Q177R homeodomain (UniProt Q15475). In words: universal protein binding microarray. To be noted: Universal all-10-mer PBM (8x60K, AMADID 030236), 300 nM GST-tagged protein, Alexa Fluor 488 anti-GST; buffer, salt, pH and temperature not stated; high values mean tight binding; most listed sequences are background and not binding sites; double strand, one strand shown.
On to AAGGCTAA, for which the binding signal was -0.282 E-score. As for TTGGTAAA, the binding signal was -0.0218 E-score. For the sequence ACCATGGA, the binding signal was -0.047 E-score. The value for TAAACATA was -0.169 E-score. In the case of AGCCTCAA, the binding signal is -0.227 E-score. The value for ACCTTCGT was -0.0665 E-score; that for AGTTCTAA was -0.1 E-score; that for CGTGATGC was -0.172 E-score. For the sequence AAGCGTGA, the binding signal turned out to be 0.0773 E-score. The value for CACTAATC was 0.172 E-score; that for GCAGTTAA was 0.0691 E-score. With AAGCACGA, the binding signal worked out at 0.0371 E-score. With CCGAAGTA, the binding signal is 0.113 E-score. As for CCCGTGGA, the binding signal worked out at 0.111 E-score. The same measure for CTTGCACA: -0.0686 E-score; for GGGAACCA: 0.0536 E-score; for AATTCTTC: -0.203 E-score. The value for CTCGGCCA was -0.247 E-score. CCGACGCC: the binding signal turned out to be 0.154 E-score.

TCGTTGCA: the binding signal is -0.0834 E-score.

Regarding CGCGTGCC, the binding signal came out at 0.0481 E-score. The value for TGACGTAA was -0.088 E-score; that for ACTTTCAC was 0.0611 E-score; that for GGTTGCAA was -0.061 E-score. As to GCGCAACA, the binding signal turned out to be 0.109 E-score. The value for ACACTAAC was 0.356 E-score; that for CCAAAGTC was -0.134 E-score. For the sequence CACGCTGC, the binding signal was found to be 0.293 E-score. For AAGCTCAC, the binding signal was -0.109 E-score. The value for CCACGTTA was -0.0871 E-score.

In the case of GAGTCTAC, the binding signal is -0.124 E-score.

With GTGGGAGA, the binding signal was -0.0934 E-score. The value for AATAGAGC was -0.107 E-score; that for ACGCGGTC was -0.068 E-score. Turning to AGAGATAC, the binding signal was 0.0877 E-score. The same measure for CTGTTTAA: -0.147 E-score.

For the sequence CACCCATA, the binding signal amounted to 0.301 E-score.

Regarding CTGATTTC, the binding signal is -0.198 E-score. The same measure for ACAGTGTC: 0.387 E-score. Turning to AGACCCTC, the binding signal stood at 0.0755 E-score. The value for GGACTGAA was -0.0933 E-score. The value for AGGACACT was 0.38 E-score; that for ACCGTGGC was -0.0436 E-score.

In the case of CAATGCTC, the binding signal was -0.133 E-score.

Take CGCACACA: the binding signal was 0.16 E-score. Turning to TACTCTCA, the binding signal was 0.00681 E-score. The value for GTAACCCA was 0.0242 E-score; that for GAATTACA was 0.22 E-score. ATGGGATC: the binding signal amounted to 0.185 E-score. Regarding ATGCTCAC, the binding signal was -0.225 E-score.

Turning to CTGATCTA, the binding signal is -0.13 E-score. The same measure for CCAACCGC: 0.0326 E-score; for CGTAAGTA: -0.16 E-score.

Take AATGCATT: the binding signal is -0.167 E-score. The value for ATGGTCGC was -0.156 E-score. For CGCAGTAA, the binding signal was -0.161 E-score. For the sequence ACTTGCAC, the binding signal was 0.175 E-score. Consider CGTTAGCC, for which the binding signal is -0.112 E-score.

Regarding CCCTTCAC, the binding signal was determined as 0.0641 E-score.

For GCCCTAAC, the binding signal is -0.185 E-score.

For ACTGCTCG, the binding signal is -0.0194 E-score. The same measure for CGATGCTC: -0.213 E-score; for CCACAGCA: 0.0334 E-score; for ATGGGAAT: 0.0359 E-score.

Consider ATGTTATG, for which the binding signal is -0.152 E-score. Turning to AGTTGGAC, the binding signal was -0.173 E-score. The value for AATCACGT was -0.171 E-score; that for CATCCCGC was -0.0678 E-score. In the case of GGTTGCCA, the binding signal was -0.169 E-score. Turning to GCCGGGTA, the binding signal is 0.197 E-score. The value for CCAGTAAG was -0.218 E-score; that for GAGTCAAA was 0.0432 E-score. The same measure for CGGCAGCA: -0.174 E-score; for CATTGCTC: -0.174 E-score. The same measure for ATACGTCA: -0.164 E-score; for CACGGCAG: 0.0729 E-score.

For the sequence CCTAGTCG, the binding signal is -0.0884 E-score.

Regarding ACGTCTTA, the binding signal is -0.259 E-score. Turning to GGAAATCA, the binding signal was -0.246 E-score. Turning to CACCTTTC, the binding signal came out at 0.195 E-score. For ACAGACAA, the binding signal was -0.109 E-score.

In the case of ATTGGGAC, the binding signal is -0.101 E-score. The value for ATATCCCC was 0.197 E-score; that for GGTAGCTA was -0.0627 E-score. Consider AGCTGTGG, for which the binding signal was 0.132 E-score.

On to CGACAAAC, for which the binding signal was -0.0296 E-score. The same measure for TCAGATAA: -0.144 E-score; for GCACGTCA: -0.135 E-score; for CATGATTA: -0.262 E-score.

As for CTTCTTAC, the binding signal was determined as 0.0698 E-score.

Turning to AACACGTC, the binding signal was found to be 0.309 E-score. The same measure for CCCCAGGG: 0.137 E-score.

Take AGTGGGAA: the binding signal was -0.162 E-score.

Take TGGGACAA: the binding signal is -0.177 E-score.

For the sequence GATGGTAA, the binding signal was -0.0537 E-score.

With CACAGGTC, the binding signal was -0.0926 E-score. On to CTCAGCAG, for which the binding signal is -0.0965 E-score. The same measure for GTAGATAA: -0.0196 E-score; for AGACTGCG: -0.148 E-score; for AGTCTAAT: -0.151 E-score.

For CAGATCAA, the binding signal is 0.0168 E-score. Consider AGTCATTA, for which the binding signal is -0.0506 E-score. As for CGTAGATA, the binding signal is -0.0344 E-score. Turning to AACTGCGG, the binding signal was -0.182 E-score.

As for CGGCGGCA, the binding signal was -0.0558 E-score.

In the case of AAAGTTGA, the binding signal was -0.196 E-score. Turning to CTCTCCGC, the binding signal is -0.185 E-score. For the sequence ACGATCCG, the binding signal was 0.232 E-score. Consider GCATCGTA, for which the binding signal is -0.076 E-score. With CATCCACC, the binding signal is 0.0323 E-score.

On to AAACGGCC, for which the binding signal is -0.159 E-score. The same measure for CGAAAACA: 0.186 E-score. Turning to TCGACACA, the binding signal stood at 0.188 E-score.

With AATTATCA, the binding signal was -0.155 E-score. The value for CAATTACG was 0.0144 E-score; that for CCATATGA was -0.0788 E-score; that for GCCGCTGA was -0.267 E-score. Consider CCTGCAGA, for which the binding signal amounted to 0.106 E-score. For the sequence ATCGTCCC, the binding signal worked out at 0.0717 E-score. The value for CTGCACAC was 0.247 E-score; that for AACCGTAG was -0.335 E-score. The same measure for TCCCCCAA: 0.0244 E-score; for GGACCGTA: -0.159 E-score.

With AGATAGTC, the binding signal came out at 0.118 E-score.

AGTAGAAT: the binding signal is -0.152 E-score. The value for ACCCAATG was 0.0984 E-score; that for ACAAAAAT was -0.137 E-score; that for AAGTTTAT was -0.158 E-score. For AAGACTCG, the binding signal was -0.055 E-score.

In the case of AGGCAGCA, the binding signal was -0.219 E-score. The value for ATATGGAT was -0.0172 E-score. On to GCTAAGAA, for which the binding signal is -0.182 E-score.

Turning to CCGATAAG, the binding signal was -0.12 E-score. On to AACTTTGA, for which the binding signal is -0.191 E-score.

On to CCAGGGAC, for which the binding signal was -0.107 E-score. With CTGTGGAA, the binding signal is -0.179 E-score.

For ACTGTAAC, the binding signal came out at 0.0658 E-score. In the case of AACGGCTG, the binding signal was -0.123 E-score.

As to CGACGCCG, the binding signal worked out at 0.118 E-score. As for CGAGTATA, the binding signal is -0.178 E-score.

With CATATGGC, the binding signal is -0.129 E-score.

ATTCCGAA: the binding signal is -0.154 E-score. In the case of GATGTGGC, the binding signal was -0.0811 E-score. For the sequence TCGCCCGA, the binding signal amounted to 0.0414 E-score. For ACCCAACA, the binding signal was 0.251 E-score. The value for CAAGTTAC was -0.109 E-score.

For CGAAAGAA, the binding signal is -0.169 E-score.

As for GGCGGACC, the binding signal was determined as 0.00194 E-score. On to CATTCTAA, for which the binding signal was -0.203 E-score. GCCTACCA: the binding signal is -0.281 E-score. Regarding AACCTGAA, the binding signal is -0.129 E-score.

With AAGATGGC, the binding signal is -0.0948 E-score. For the sequence AAGAACGG, the binding signal is -0.103 E-score. The value for AGAGTTAT was 0.0409 E-score; that for CGGCCAAC was 0.0603 E-score; that for GGCATCCA was -0.0943 E-score.

CGTCAATC: the binding signal was -0.19 E-score.

Regarding CCTAGATC, the binding signal is -0.137 E-score. The same measure for AAGCAGCA: -0.266 E-score; for GTACGACA: 0.297 E-score. The same measure for CCACGTGA: 0.0106 E-score; for CCCTGAAG: 0.0625 E-score. GTGGACAA: the binding signal was determined as 0.0232 E-score. CAATCTTC: the binding signal is -0.282 E-score. As for GCGTGTAC, the binding signal is 0.439 E-score.

For the sequence AAGGCGGG, the binding signal was 0.132 E-score.

With GAGTGGGA, the binding signal is -0.0417 E-score. The value for CCGACACG was 0.418 E-score; that for ATTCTGCG was -0.175 E-score; that for AACTTTTA was -0.248 E-score. Regarding CATAAGTA, the binding signal was -0.0142 E-score. On to CAGAATGG, for which the binding signal was -0.134 E-score.
